# Over roughly 13,000 compounds, “IFI” has its median near 4; the highest 2% begin near 17. The list shows a part of the results.
# Experiment: GSK_TCMDC: Inhibition Frequency Index (IFI). The number of non-kinase HTS assays where a compound showed > 50 % inhibition, expressed as a percentage of the number of such assays in which the compound was tested (-0 is zero)
# Type: functional
row,Compound,IFI [%]
1,CCN(CC)CCN(Cc1ccc(-c2ccc(C(F)(F)F)cc2)cc1)C(=O)Cn1c(/C=C/c2ccco2)nc(=O)c2ccccc21,5.52
2,COc1cc(F)c2ncc(F)c(CCN3C[C@H](CNCc4ccc5c(n4)NC(=O)CS5)[C@H](O)C3)c2c1,0.97
3,CN1CCC(NCc2ccc(-c3ccc(Cl)cc3)cc2)CC1,7.8
4,CCc1ccc2nc(-c3ccc(F)cc3)nc(SCC(=O)Nc3sc(C)c(C)c3C#N)c2c1,-0
5,N#Cc1c(N2CCCCCC2)nc(N)c2c(N)nc3c(c12)CC(=O)N3c1ccc(F)cc1,2.86
6,c1ccc2c(NCCCCCCNc3ccnc4ccccc34)ccnc2c1,4.55
7,CN1CCCC(CN2CCN(Cc3ccc(-c4ccc(-c5nc6ccccc6[nH]5)cc4)cc3)CC2)C1 (stereo unspecified),7.04
8,COc1ccc(C(=O)Nc2ccc(Cl)cc2C(=O)Nc2ccncc2)cc1,1.35
9,O=C(Nc1ccc(-c2cccc(-c3nc4cc(C(F)(F)F)ccc4[nH]3)c2)cc1)Nc1ccc(Cl)c(Cl)c1,7
10,Nc1nc(N)c2c(ccc3c2ccn3Cc2ccccc2)n1,6.29
11,CC1(C)NC(N)=NC(=N)N1OCCCCOc1ccccc1,2.17
12,Nc1nc(N)c2c(ccc3c2ccn3Cc2ccc3c(c2)OCO3)n1,6.67
13,CN1CCN(CCCN(Cc2cccc(-c3ccc(CNC4CCCC4)cc3)c2)C(=O)CCC2CCCC2)CC1,7.91
14,Cc1nc2nc(N)nc(N)c2c(C)c1Cc1ccc(N)cc1,8.59
15,CC[C@H](C)CNCc1ccc(OCc2cccc(COc3ccc(CNC[C@@H](C)CC)cc3I)c2)c(I)c1,15.3
16,O=C(/C=C/c1ccc(Cl)c(Cl)c1)NCCCCCN1CCC(NC(=O)Nc2cccc(F)c2)CC1,4.7
17,Cc1ccc(Oc2ncccc2C(=O)Nc2cccc3cccnc23)c(C)c1,2.88
18,Cc1ccc(CNC(=O)[C@H](Cc2ccccc2)Nc2cc(C)nc(NCc3ccccc3C)n2)cc1,4.88
19,COc1ccc(C(=O)O)cc1OCc1ccccc1,0
20,CC(C)CNCc1ccc(-c2ccc(CN(CCCN3CCN(C)CC3)C(=O)/C=C/c3ccccc3)cc2)cc1,6.67
21,CC(C)N1CCN(C(=O)c2ccc(CNCCCN3CCN(c4ccccc4C(F)(F)F)CC3)s2)CC1,8.54
22,O=C(NC1CC1)c1ccc(Cn2c(SCc3cccc([N+](=O)[O-])c3)nc3ccccc3c2=O)cc1,0.71
23,c1ccc(CCNCc2cccc(-c3ccccc3CNCc3ccc4c(c3)OCO4)c2)nc1,5.44

row,Compound,IFI [%]
1,Oc1ccc(-c2nc3c4cc(I)ccc4c4ccc(I)cc4c3[nH]2)cc1,1.44
2,CC(C)c1ccc(CN2CCCCC(NC(=O)c3cc(-c4cccc(F)c4)cs3)C2)cc1 (stereo unspecified),1.82
3,COc1c(Br)cc(Br)cc1C(C)=O,-0
4,CC(C)c1ccc(NC(=O)NC2CCN(CCCCCNC(=O)/C=C/c3ccc(Cl)c(Cl)c3)CC2)cc1,5.67
5,N=C(N)Nc1ccc(OCCCCCOc2ccc(NC(=N)N)cc2Br)c(Br)c1,5.88
6,CC(C)c1ccc(CN2CCC(NC(=O)c3ccc(-c4cccc(Cl)c4)s3)CC2)cc1,12.1
7,CCCCCC(C)C(C)c1cc(O)c2c(c1)OC(C)(C)CC2(O)c1ccnn1C (stereo unspecified),0.72
8,CN1CCN(c2cc(NC(=O)c3ccc(-c4ccc(Cl)cc4)cc3)ccc2Cl)CC1,5.66
9,CCCCc1cc(NCc2ccncc2)nc(Nc2cccc(OC)c2)n1,5.8
10,CNC(=O)c1ccccc1Nc1cc(Nc2cc(OC)ccn2)ncc1Cl,-0
11,O=C1COc2ccccc2N1C/C=C(\CN1CCC(c2ccccc2)CC1)c1cc(Cl)cc(Cl)c1,1.57
12,Cc1cnc(C(=O)Nc2cccc(-c3cccc(-c4nc5cc(F)ccc5[nH]4)c3)c2)cn1,0.91
13,O=C(NCC1CCC(CNCCc2ccccc2)CC1)Nc1ccc(Cl)c(Cl)c1 (stereo unspecified),0.72
14,CN1CCN(Cc2nc(-c3ccc4c(Nc5ccc(F)c(O)c5)ccnc4c3)cs2)CC1,4.38
15,CCc1c(CCNCCCCCNCCc2ccc(OC)c(OC)c2CC)ccc(OC)c1OC,6.38
16,COc1ccc(CC(=O)NC(CCCN2CCC(c3ccccc3)CC2)c2ccc(Cl)c(Cl)c2)cc1OC (stereo unspecified),9.4
17,Nc1nc(N)c2c(ccc3nn(S(=O)(=O)N4CCCC4)cc32)n1,1.47
18,CCOc1cc(C)ccc1N1CCN(CCCCNC(=O)c2ccc(NC(=O)c3ccc(Cl)cc3)cc2)CC1,7.02
19,Cc1c(-c2cccc(NC(=O)C(C)(C)Oc3ccc(Cl)cc3)c2)nc2ncccn12,0.85
20,CCN(CCCN1CCCCC1)c1cc(C)nc(Nc2ccc(Oc3ccccc3)cc2)n1,16.2
21,CCOC(=O)c1c(C)n(-c2ccccc2)c2ccc(OC(=O)COc3ccc(Cl)cc3Cl)cc12,1.69
22,CC(C)Cn1c(Sc2ccc(C#N)c([N+](=O)[O-])c2)nnc1-c1ccccc1Cl,6.43
23,CC(C)C(=O)NC(Nc1ccc([N+](=O)[O-])cc1)C(Cl)(Cl)Cl (stereo unspecified),0.72
